Laboratory results taken from patent publication US12286661B2, “Methods for making high intensity sweeteners” (Firmenich Incorporated, priority 2018, dated 2025).

B1: SEQ ID NO 1007: fusion protein having cucurbitadienol synthase activity (protein)
chain: MVDARGSNGSAAPGSGSGSGMWRLKVGKESVGEKEEKWIKSISNHLGRQVWEFCSGENENDDDEAIAVANNSASKFENARNHFRNNRFHRKQSSDLFLAIQCEKEIIRNGAKNEGTTKVKEGEDVKKEAVKNTLERALSFYSAVQTSDGNWASDLGGPMFLLPGLVIALYVTGVLNSVLSKHHRQEMCRYIYNHQNEDGGWGLHIEGSSTMFGSALNYVALRLLGEAADGGEHGAMTKARSWILERGGATAITSWGKLWLSVLGVYEWSGNNPLPPEFWLLPYSLPFHPGRMWCHCRMVYLPMSYLYGKRFVGPITPIVLSLRKELYTIPYHEIDWNRSRNTCAKEDLYYPHPKMQDILWGSIYHVYEPLFSGWPGKRLREKAMKIAMEHIHYEDENSRYICLGPVNKVLNMLCCWVEDPYSDAFKFHLQRIPDYLWLAEDGMRMQGYNGSQLWDTAFSIQAIISTKLIDTFGPTLRKAHHFVKHSQIQEDCPGDPNVWFRHIHKGAWPFSTRDHGWLISDCTAEGLKASLMLSKLPSKIVGEPLEKNRLCDAVNVLLSLQNENGGFASYELTRSYPWLELINPAETFGDIVIDYSYVECTSATMEALALFKKLHPGHRTKEIDAAIAKAANFLENMQKTDGSWYGCWGVCFTYAGWFGIKGLVAAGRTYNNCVAIRKACNFLLSKELPGGGWGESYLSCQNKVYTNLEGNKPHLVNTAWVMMALIEAGQGERDPAPLHRAARLLINSQLESGDFPQQEIMGVFNKNCMITYAAYRNIFPIWALGEYSHRVLDM
modifications: SS5f-E11 Full Gene AA seq
B2: SEQ ID NO 851: fusion protein having cucurbitadienol synthase activity (protein)
chain: MWRLKVGKESVGEKEEKWIKSISNHLGRQVWEFCSGENENDDDEAIAVANNSASKFENARNHFRNNRFHRKQSSDLFLAIQCEKEIIRNGAKNEGTTKVKEGEDVKKEAVKNTLERALSFYSAVQTSDGNWASDLGGPMFLLPGLVIALYVTGVLNSVLSKHHRQEMCRYIYNHQNEDGGWGLHIEGSSTMFGSALNYVALRLLGEAADGGEHGAMTKARSWILERGGATAITSWGKLWLSVLGVYEWSGNNPLPPEFWLLPYSLPFHPGRMWCHCRMVYLPMSYLYGKRFVGPITPIVLSLRKELYTIPYHEIDWNRSRNTCAKEDLYYPHPKMQDILWGSIYHVYEPLFSGWPGKRLREKAMKIAMEHIHYEDENSRYICLGPVNKVLNMLCCWVEDPYSDAFKFHLQRIPDYLWLAEDGMRMQGYNGSQLWDTAFSIQAIISTKLIDTFGPTLRKAHHFVKHSQIQEDCPGDPNVWFRHIHKGAWPFSTRDHGWLISDCTAEGLKASLMLSKLPSKIVGEPLEKNRLCDAVNVLLSLQNENGGFASYELTRSYPWLELINPAETFGDIVIDYSYVECTSATMEALALFKKLHPGHRTKEIDAAIAKAANFLENMQKTDGSWYGCWGVCFTYAGWFGIKGLVAAGRTYNNCVAIRKACNFLLSKELPGGGWGESYLSCQNKVYTNLEGNKPHLVNTAWVMMALIEAGQGERDPAPLHRAARLLINSQLESGDFPQQEIMGVFNKNCMITYAAYRNIFPIWALGEYSHRVLDMGSAAPGSGSGSGMSASTTSLEEYQKTFLELGLECKALRFGSFKLNSGRQSPYFFNLSLFNSGKLLANLATAYATAIIQSELKFDVIFGPAYKGIPLAAIVCVKLAEIGGTKFQGIQYAFNRKKVKDHGEGGIIVGASLEDKRVLIIDDVMTAGTAINEAFEIISIAQGRVVGCIVALDRQEVIHESDPERTSATQSVSKRYNVPVLSIVSLTQVVQFMGNRLSPEQKSAIENYRKAYGI
modifications: SS2e-A7b Full Gene AA seq
B3: SEQ ID NO 854: fusion protein having cucurbitadienol synthase activity (protein)
chain: MWRLKVGKESVGEKEEKWIKSISNHLGRQVWEFCSGENENDDDEAIAVANNSASKFENARNHFRNNRFHRKQSSDLFLAIQCEKEIIRNGAKNEGTTKVKEGEDVKKEAVKNTLERALSFYSAVQTSDGNWASDLGGPMFLLPGLVIALYVTGVLNSVLSKHHRQEMCRYIYNHQNEDGGWGLHIEGSSTMFGSALNYVALRLLGEAADGGEHGAMTKARSWILERGGATAITSWGKLWLSVLGVYEWSGNNPLPPEFWLLPYSLPFHPGRMWCHCRMVYLPMSYLYGKRFVGPITPIVLSLRKELYTIPYHEIDWNRSRNTCAKEDLYYPHPKMQDILWGSIYHVYEPLFSGWPGKRLREKAMKIAMEHIHYEDENSRYICLGPVNKVLNMLCCWVEDPYSDAFKFHLQRIPDYLWLAEDGMRMQGYNGSQLWDTAFSIQAIISTKLIDTFGPTLRKAHHFVKHSQIQEDCPGDPNVWFRHIHKGAWPFSTRDHGWLISDCTAEGLKASLMLSKLPSKIVGEPLEKNRLCDAVNVLLSLQNENGGFASYELTRSYPWLELINPAETFGDIVIDYSYVECTSATMEALALFKKLHPGHRTKEIDAAIAKAANFLENMQKTDGSWYGCWGVCFTYAGWFGIKGLVAAGRTYNNCVAIRKACNFLLSKELPGGGWGESYLSCQNKVYTNLEGNKPHLVNTAWVMMALIEAGQGERDPAPLHRAARLLINSQLESGDFPQQEIMGVFNKNCMITYAAYRNIFPIWALGEYSHRVLDMGSAAPGSGSGSGMTELDYQGTAEAASTSYSRNQTDLKPFPSAGSASSSIKTTEPVKDHRRRRSSSIISHVEPETFEDENDQQLLPNMNATWVDQRGAWIIHVVIIILLKLFYNLFPGVTTEWSWTLTNMTYVIGSYVMFHLIKGTPFDFNGGAYDNLTMWEQIDDETLYTPSRKFLISVPIALFLVSTHYAHYDLKLFSWNCFLTTFGAVVPKLPVTHRLRISIPGITGRAQIS
modifications: SS2d-G11 Full Gene AA seq
B4: SEQ ID NO 859: fusion protein having cucurbitadienol synthase activity (protein)
chain: MWRLKVGKESVGEKEEKWIKSISNHLGRQVWEFCSGENENDDDEAIAVANNSASKFENARNHFRNNRFHRKQSSDLFLAIQCEKEIIRNGAKNEGTTKVKEGEDVKKEAVKNTLERALSFYSAVQTSDGNWASDLGGPMFLLPGLVIALYVTGVLNSVLSKHHRQEMCRYIYNHQNEDGGWGLHIEGSSTMFGSALNYVALRLLGEAADGGEHGAMTKARSWILERGGATAITSWGKLWLSVLGVYEWSGNNPLPPEFWLLPYSLPFHPGRMWCHCRMVYLPMSYLYGKRFVGPITPIVLSLRKELYTIPYHEIDWNRSRNTCAKEDLYYPHPKMQDILWGSIYHVYEPLFSGWPGKRLREKAMKIAMEHIHYEDENSRYICLGPVNKVLNMLCCWVEDPYSDAFKFHLQRIPDYLWLAEDGMRMQGYNGSQLWDTAFSIQAIISTKLIDTFGPTLRKAHHFVKHSQIQEDCPGDPNVWFRHIHKGAWPFSTRDHGWLISDCTAEGLKASLMLSKLPSKIVGEPLEKNRLCDAVNVLLSLQNENGGFASYELTRSYPWLELINPAETFGDIVIDYSYVECTSATMEALALFKKLHPGHRTKEIDAAIAKAANFLENMQKTDGSWYGCWGVCFTYAGWFGIKGLVAAGRTYNNCVAIRKACNFLLSKELPGGGWGESYLSCQNKVYTNLEGNKPHLVNTAWVMMALIEAGQGERDPAPLHRAARLLINSQLESGDFPQQEIMGVFNKNCMITYAAYRNIFPIWALGEYSHRVLDMGSAAPGSGSGSGMGKNVLLLGSGFVAQPVIDTLAANDDINVTVACRTLANAQALAKPSGSKAISLDVTDDSALDKVLADNDVVISLIPYTFHPNVVKSAIRTKTDVVTSSYISPALRELEPEIVKAGITVMNEIGLDPGIDHLYAVKTIDEVHRAGGKLKSFLSYCGGLPAPEDSDNPLGYKFSWSSRGVLLALRNSAKYWKDGKIETVSSEDLMATAKPYFIYPGYAFVCYPNRDSTLFKDLYHIPEAETVIRGTLRYQGFPEFVKALVDMGMLKDDANEIFSKPIAWNEALKQYLGAKSTSKEDLIASIDSKATWKDDEDRERILSGFAWLGLFSDAKITPRGNALDTLCARLEELMQYEDNERDMVVLQHKFGIEWADGTTETRTSTLVDYGKVGGYSSMAATVGYPVAIATKFVLDGTIKGPGLLAPYSPEINDPIMKELKDKYGIYLKEKTVA
modifications: SS4d-G5 Full Gene AA seq
B5: SEQ ID NO 862: fusion protein having cucurbitadienol synthase activity (protein)
chain: MWRLKVGKESVGEKEEKWIKSISNHLGRQVWEFCSGENENDDDEAIAVANNSASKFENARNHFRNNRFHRKQSSDLFLAIQCEKEIIRNGAKNEGTTKVKEGEDVKKEAVKNTLERALSFYSAVQTSDGNWASDLGGPMFLLPGLVIALYVTGVLNSVLSKHHRQEMCRYIYNHQNEDGGWGLHIEGSSTMFGSALNYVALRLLGEAADGGEHGAMTKARSWILERGGATAITSWGKLWLSVLGVYEWSGNNPLPPEFWLLPYSLPFHPGRMWCHCRMVYLPMSYLYGKRFVGPITPIVLSLRKELYTIPYHEIDWNRSRNTCAKEDLYYPHPKMQDILWGSIYHVYEPLFSGWPGKRLREKAMKIAMEHIHYEDENSRYICLGPVNKVLNMLCCWVEDPYSDAFKFHLQRIPDYLWLAEDGMRMQGYNGSQLWDTAFSIQAIISTKLIDTFGPTLRKAHHFVKHSQIQEDCPGDPNVWFRHIHKGAWPFSTRDHGWLISDCTAEGLKASLMLSKLPSKIVGEPLEKNRLCDAVNVLLSLQNENGGFASYELTRSYPWLELINPAETFGDIVIDYSYVECTSATMEALALFKKLHPGHRTKEIDAAIAKAANFLENMQKTDGSWYGCWGVCFTYAGWFGIKGLVAAGRTYNNCVAIRKACNFLLSKELPGGGWGESYLSCQNKVYTNLEGNKPHLVNTAWVMMALIEAGQGERDPAPLHRAARLLINSQLESGDFPQQEIMGVFNKNCMITYAAYRNIFPIWALGEYSHRVLDMGSAAPGSGSGSGMSRLPLKQFLADNPKKVLVLDGGQGTELENRGIKVANPVWSTIPFISESFWSDESSANRKIVKEMFNDFLNAGAEILMTTTYQTSYKSVSENTPIRTLSEYNNLLNRIVDFSRNCIGEDKYLIGCIGPWGAHICREFTGDYGAEPENIDFYQYFKPQLENFNKNDKLDLIGFETIPNIHELKAILSWDESILSRPFYIGLSVHEHGVLRDGTTMEEIAQVIKDLGDKINPNFSFLGINCVSFNQSPDILESLHQALPNMALLAYPNSGEVYDTEKKIWLPNSDKLNSWDTVVKQYISSGARIIGGCCRTSPKDIQEISAAVKKYT
modifications: SS4d-C7 Full Gene AA seq

System: cucurbitadienol synthase activity
Assay: Cucurbitadienol synthase activities of fusion proteins in yeast strain with oxidosqualene boost, LCMS
Assay type: cell-based, S. cerevisiae
Details: average % activities over the average activities of the parent enzyme (Cucumis melo cucurbitadienol synthase)
How it was run: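 Activity expressed as mean percent of the unfused parent enzyme (n=8), using 409 and 427 ion peak ratios of cucurbitadienol against an internal standard by C4 LCMS. Fusion variants of codon-optimized melon synthase were expressed in yeast with boosted oxidosqualene.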

Molecule | Activity (as compared to the parent) [%]
B1 | 97
B2 | 142
B3 | 135
B4 | 105
B5 | 102
